The supplement of paper PMC3724861
This is one part of the list.

What follows are sequences tested on T1, Caupolican (Caup) homeodomain DNA-binding domain (assay: PBM E-score (8-mer, recovered from the published 9-mer minima) (E-score (dimensionless, -0.5 to 0.5)); Drosophila protein; higher = stronger relative binding preference, active = 0.31 or more).
T1 sequence: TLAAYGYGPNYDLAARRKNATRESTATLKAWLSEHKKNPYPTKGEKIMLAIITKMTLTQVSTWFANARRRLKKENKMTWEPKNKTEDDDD
In short: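 Caup's homeodomain DNA-binding domain (residues 214-303) was produced by in vitro transcription and translation and applied at 100 nM to custom-designed protein binding microarrays. Each value is an enrichment score giving relative binding preference for a short DNA word; higher means stronger. Published 9-mer scores were the minimum of their two constituent 8-mer scores, and the 8-mer values were recovered from those minima. A cutoff of 0.31 marks candidate binding sequences.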

Sequence | PBM E-score
CAAGCCCA | inactive: -0.0234
GATATAGC | inactive: 0.0239
AAGTCCGA | inactive: -0.0277
TAAAGGGA | inactive: -0.0105
AGATACGG | inactive: -0.0361
AGATGGCG | inactive: -0.098
GTATTTTA | inactive: 0.146
AGGTGTGG | inactive: -0.15
ACCTGTGA | inactive: 0.0824
GTCTAGGA | inactive: -0.0374
GGGAGCAC | inactive: -0.143
ATCATTCG | inactive: 0.0941
CACCATAA | inactive: 0.0632
GAAGTTAC | inactive: 0.114
GATTGTAC | inactive: 0.235
CCAATACA | inactive: 0.246
ATCGCGAG | inactive: -0.00263
AGTAGCAG | inactive: 0.0982
CAAGCCCG | inactive: -0.0915
ATAAGTCA | inactive: 0.046
TCTGAGAA | ≥ 0.0563
ACTTATAA | inactive: 0.103
GCGCCGTA | inactive: -0.0821
CACTGATG | inactive: 0.107

Sequence | PBM E-score
ATAAAGAG | inactive: -0.00301
AAACGTGT | active: 0.31
GACGGCCA | inactive: -0.221
CAAAGGAG | inactive: -0.0814
CATGACGA | inactive: 0.0682
TCATGAGA | inactive: 0.0179
ATCCCGTC | inactive: -0.0419
CAGTCCTC | inactive: -0.128
AAGGGGGT | inactive: -0.212
AATGGTCG | inactive: -0.0664
ACGGTACA | inactive: 0.207
ACTTTGAG | inactive: -0.0584
AGTAAATG | inactive: 0.144
AACGATCC | inactive: -0.072
CAAGCCGC | inactive: -0.178
CCCTGCCC | inactive: -0.285
GCTTTGTA | inactive: 0.124
ATTGCATG | inactive: 0.202
GGGATGGA | inactive: -0.137
CCGAAAGC | inactive: -0.0814
TAACGTGA | inactive: 0.0644
CATGTTCG | active: 0.399
GCAGACTA | inactive: -0.00336
AAGTGGCT | inactive: -0.132

Sequence | PBM E-score
CGTCCCTC | inactive: -0.189
CCGTTTCC | inactive: -0.15
GATGTTAC | inactive: 0.295
GGCATAGA | inactive: -0.00126
AGCCACTC | inactive: -0.119
CGCTGCAG | inactive: -0.101
TCAGAGGA | inactive: -0.0823
AAGTAGTC | inactive: 0.159
CAAGGCCG | inactive: -0.103
ACGCTGCG | inactive: -0.141
CTTACCTC | inactive: -0.149
ATCCCAGC | inactive: -0.137
CGAAAAAA | inactive: 0.0305
GTAGAAAC | inactive: 0.0787
AAAATTTT | inactive: 0.0308
ATTTGCTA | inactive: 0.0587
AACCGTAG | inactive: -0.0767
AGTCAAGA | inactive: -0.0668
AAGGTGAA | inactive: -0.03
CCCGCGAG | inactive: -0.239
AAAATCAC | ≥ 0.164
AAAGTTCG | inactive: -0.00941
CGAACCAA | inactive: -0.018
GGACTTAA | inactive: -0.0309

Sequence | PBM E-score
AGTCCTAT | inactive: 0.0606
CAGTTCCA | inactive: 0.0358
CACACTGC | inactive: -0.0174
ACCCAGTC | inactive: -0.116
CGAAGCAA | inactive: 0.0454
CGCTCAAG | inactive: -0.197
TCCCAACA | inactive: 0.0498
CCTCAACA | inactive: 0.0443
ATCCTGAG | inactive: -0.0222
CCACTGGA | inactive: -0.0569
CTTAAAGC | inactive: -0.0482
AATTACAG | inactive: 0.244
CCTATCCC | inactive: -0.056
ATGTGCCA | inactive: 0.119
CCAAAATC | inactive: -0.0159
GCGCCACA | inactive: -0.129
AAATTTTA | inactive: 0.0807
AGACGCCC | inactive: -0.207
CCATGGCG | inactive: -0.139
CCGATTGA | inactive: 0.0721
AACGTGAT | inactive: 0.105
CCTTTCCG | inactive: -0.139
AACTCAGA | ≥ 0.0703
AAAATGCA | inactive: 0.0534

Sequence | PBM E-score
CTCCCGAA | inactive: -0.138
ATCCACTA | inactive: 0.0686
CACAGTGC | inactive: -0.0778
CTTCACGC | inactive: -0.00498
CAGCTAAA | inactive: 0.0657
CAACATGA | active: 0.344
AGCAGTAT | inactive: -0.00186
AACGTATT | inactive: 0.0772
GGGGAGAC | inactive: -0.203
GGAAACCC | inactive: -0.0884
GCGTTAAA | inactive: -0.0823
AAACCAAT | inactive: 0.114
GCATATCA | inactive: 0.0447
GCCTTTCC | inactive: -0.14
ATGAGATC | inactive: 0.111
CAAATTAA | inactive: 0.0851
CAAAACGA | inactive: 0.0495
AATACAAT | inactive: 0.226
AACGGTGA | inactive: 0.0278
ATCCGTTC | inactive: -0.0452
CACGACGA | inactive: 0.0355
AAGTGGAG | inactive: -0.0238
CATTCTGC | inactive: -0.0716
AATCATGC | inactive: 0.0523

Sequence | PBM E-score
CTCAAGCA | inactive: 0.0108
ATCACCTA | inactive: 0.0852
ACACATGC | inactive: 0.236
GTCTCGTA | inactive: 0.0548
GAGGATCC | inactive: -0.0915
CCTTCCGC | inactive: -0.195
AATAGTTA | inactive: 0.13
ACGCCTAC | inactive: -0.105
GAATGACC | inactive: -0.0161
GAACACCA | inactive: 0.195
ATTAACAA | active: 0.342
AGAGCCCG | inactive: -0.251
ACTCATCA | inactive: 0.0128
ACCGTTAT | inactive: 0.0036
AGGCACCA | ≥ -0.0964
AATCGATA | inactive: 0.143
CCTCCAAG | inactive: -0.0978
TCATCAAA | inactive: 0.0167
CACATCTC | inactive: -0.00827
TCGTTAAA | inactive: 0.0672
TCGATAGA | inactive: 0.0878
AAGTGGGG | inactive: -0.203
